Hit rate of the full screen: of about 310,000 compounds, about 2,200 (0.71%) showed an effect of 50% or more. The effect is printed as a negative number. This is one part of the list.

In this assay the target is human ether-à-go-go-related gene (hERG) potassium channel (human, UniProt Q12809). The assay is described as follows: primary screen, population patch clamp on CHO cells stably expressing hERG.
Sequence of human ether-à-go-go-related gene (hERG) potassium channel (Q12809 whole entry, looked up): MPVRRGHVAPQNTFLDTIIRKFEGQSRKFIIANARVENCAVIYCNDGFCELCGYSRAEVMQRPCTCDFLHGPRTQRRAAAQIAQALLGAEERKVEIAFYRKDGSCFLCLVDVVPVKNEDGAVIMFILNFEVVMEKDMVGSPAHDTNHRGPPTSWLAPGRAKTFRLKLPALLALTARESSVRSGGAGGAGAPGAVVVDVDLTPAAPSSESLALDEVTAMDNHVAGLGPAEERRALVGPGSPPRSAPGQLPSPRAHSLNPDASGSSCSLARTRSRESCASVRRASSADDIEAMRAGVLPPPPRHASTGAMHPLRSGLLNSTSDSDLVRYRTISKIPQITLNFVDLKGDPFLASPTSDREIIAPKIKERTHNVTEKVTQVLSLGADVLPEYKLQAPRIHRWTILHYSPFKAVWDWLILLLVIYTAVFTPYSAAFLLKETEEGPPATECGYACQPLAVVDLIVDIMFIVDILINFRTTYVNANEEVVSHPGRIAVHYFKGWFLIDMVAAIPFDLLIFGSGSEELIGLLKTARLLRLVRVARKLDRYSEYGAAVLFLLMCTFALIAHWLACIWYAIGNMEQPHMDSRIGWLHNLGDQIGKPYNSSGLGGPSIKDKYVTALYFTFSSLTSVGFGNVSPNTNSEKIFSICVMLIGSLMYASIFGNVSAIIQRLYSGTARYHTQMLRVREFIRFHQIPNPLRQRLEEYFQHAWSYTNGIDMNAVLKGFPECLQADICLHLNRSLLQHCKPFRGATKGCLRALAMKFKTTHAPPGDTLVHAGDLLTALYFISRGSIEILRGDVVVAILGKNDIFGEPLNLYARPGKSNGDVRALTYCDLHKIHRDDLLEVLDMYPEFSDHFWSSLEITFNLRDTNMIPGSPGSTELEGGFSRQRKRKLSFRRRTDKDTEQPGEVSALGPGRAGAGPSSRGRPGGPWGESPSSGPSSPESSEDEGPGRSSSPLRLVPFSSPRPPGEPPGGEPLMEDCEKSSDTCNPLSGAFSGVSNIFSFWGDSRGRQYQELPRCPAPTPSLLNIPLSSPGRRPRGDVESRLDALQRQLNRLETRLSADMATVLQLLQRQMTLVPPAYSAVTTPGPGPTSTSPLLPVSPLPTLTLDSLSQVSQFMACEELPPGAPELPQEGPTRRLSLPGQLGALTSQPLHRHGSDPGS
With `CC(=O)N1CCc2cc(Br)cc(S(=O)(=O)NCc3ccccn3)c21`, the “hERG current change (%, negative = inhibition) at 1uM” value is on record as 14.2%. `CCN1CCN(Cc2ccc(NC(=O)c3ccc(C)c(NC(=O)N4CCNC4=O)c3)cc2C(F)(F)F)CC1`: the “hERG current change (%, negative = inhibition) at 1uM” value stood at 13.4%. In the case of `C/C(=N\NC(=O)Cn1nc(C)cc1C)c1ccc([N+](=O)[O-])cc1`, the “hERG current change (%, negative = inhibition) at 1uM” value is -3.11%. With `CC(NC(=O)COc1ccc(S(=O)(=O)N2CCOCC2)cc1)c1ccccc1` (stereo not shown), the “hERG current change (%, negative = inhibition) at 1uM” value turned out to be 10.7%. Turning to `O=S(=O)(c1cc(C(F)(F)F)ccc1Cl)N1CCN(c2ccccn2)CC1`, the “hERG current change (%, negative = inhibition) at 1uM” value was -4.36%.

For the molecule `O=C(CCC1CCCN(C(=O)c2cccs2)C1)N1CCN(c2ccccn2)CC1` (stereo not shown), the “hERG current change (%, negative = inhibition) at 1uM” value was 7.51%. The figure for `CCCCS/C(N)=N/N=C/c1ccccc1O` is 13.9%; for `COC(=O)/C(=C(/F)SCC(C)=O)C(F)(F)F` it is 11%; for `CCCNC(=O)COc1ccc(-c2nn(C)c(=O)c3ccccc23)cc1` it is 16.3%. With `COc1ccccc1N(CC1CO1)S(=O)(=O)c1ccccc1` (stereo not shown), the “hERG current change (%, negative = inhibition) at 1uM” value turned out to be 9.79%. For the molecule `Cc1ccc2nc(SCC(=O)NNC(=O)c3ccccc3)[nH]c2c1`, the “hERG current change (%, negative = inhibition) at 1uM” value amounted to 1.65%. The figure for `Cc1ccc(OCCCC(=O)N2CCN(S(=O)(=O)c3cccc(F)c3)CC2)cc1` is -1.38%. The figure for `Fc1ccccc1CN1CCCN(C(=S)Nc2cccc(Cl)c2)C1` is 3.96%; for `CC1CCN(C(=O)C(=O)c2cn(CC(=O)N3CCCC3)c3ccccc23)CC1` it is 10.6%; for `CCOCCCNC(=O)C(NC(=O)c1ccc2c(c1)OCO2)c1ccccc1` (stereo not shown) it is 7.14%. The figure for `CCOC(=O)Cc1nnc(NC(=O)CSc2ccc(C)cc2)s1` is 9.78%; for `CCCS(=O)(=O)N1CCCC(C(=O)NC(C)c2ccc3c(c2)OCCO3)C1` (stereo not shown) it is 12.3%.

With `Cc1ccc(-c2nnn(CC(=O)N3CCC(C)CC3)n2)o1`, the “hERG current change (%, negative = inhibition) at 1uM” value amounted to 17%. On to `CCn1c2ccccc2c2cc(NC(=O)CSc3nnc(C4CC4)n3Cc3ccco3)ccc21`, for which the “hERG current change (%, negative = inhibition) at 1uM” value amounted to 12.9%.

As for `COc1ccc(C(=O)N/N=C(\C)c2ccc(NC(=O)Cc3ccccc3)cc2)c(OC)c1`, the “hERG current change (%, negative = inhibition) at 1uM” value is listed as 0.941%. On to `CCCC(C)C(=O)Nc1ccc(C(N)=O)cc1` (stereo not shown), for which the “hERG current change (%, negative = inhibition) at 1uM” value worked out at 9.98%.

`Cc1ccc(C(=O)N2CCN(c3ncnc4c(C)csc34)CC2)cc1`: the “hERG current change (%, negative = inhibition) at 1uM” value came to 4.78%.

In the case of `COc1ccc(CN2C(=O)C(C)Oc3ccccc32)cc1` (stereo not shown), the “hERG current change (%, negative = inhibition) at 1uM” value is 19%. Take `Cc1csc(NC(=O)c2ccc[nH]c2=O)n1`: the “hERG current change (%, negative = inhibition) at 1uM” value is listed as 12.7%. Next, `NC(=O)c1oc2ccc(Cl)cc2c1NC(=O)CN1CCOCC1`: 5.95%; `CCc1nccn1S(=O)(=O)c1ccc(OC)c(OC)c1`: 5.83%; `O=[N+]([O-])C1=CC=C2C(=NC3(CCCCC3)N2O)C1=NCCO`: 11.1%.

On to `COc1ccc(S(=O)(=O)N2CCN(CCC(=O)Nc3ccccc3F)CC2)cc1`, for which the “hERG current change (%, negative = inhibition) at 1uM” value came out at 7.26%. As for `CCOc1ccc(CCNC(=O)COC(=O)/C=C/c2ccc(OCC#N)c(OC)c2)cc1OCC`, the “hERG current change (%, negative = inhibition) at 1uM” value is given as 3.03%. For the molecule `O=C(CSc1nc(-c2ccccc2)c(-c2ccccc2)o1)Nc1nnc(-c2ccccc2)s1`, the “hERG current change (%, negative = inhibition) at 1uM” value is 19%. With `CC(C)Sc1cc(N2CCCC2)nc(-c2ccc(F)cc2)n1`, the “hERG current change (%, negative = inhibition) at 1uM” value came to 10.3%. Consider `CNC(=O)c1c(NC(=O)C2=COCCO2)sc2c1CCCC2`, for which the “hERG current change (%, negative = inhibition) at 1uM” value is listed as 10.9%. On to `O=C(CCS(=O)(=O)c1cccc2nsnc12)NCc1ccccc1`, for which the “hERG current change (%, negative = inhibition) at 1uM” value is 5.93%.

For the molecule `CC(=O)c1cccc(NC(=O)C(OC(=O)c2ccccc2NS(=O)(=O)c2cccs2)c2ccccc2)c1` (stereo not shown), the “hERG current change (%, negative = inhibition) at 1uM” value worked out at 10.1%. On to `CN1CCN(Cc2cc(COCc3ccccc3)c3cccnc3c2O)CC1`, for which the “hERG current change (%, negative = inhibition) at 1uM” value is listed as -2.17%. `COc1cccc(C=Nc2ccc3c(c2)CCC3)c1O`: the “hERG current change (%, negative = inhibition) at 1uM” value was 11.8%. On to `CCSc1nnc(NC(=O)CN2C(=O)C3CC=CCC3C2=O)s1` (stereo not shown), for which the “hERG current change (%, negative = inhibition) at 1uM” value turned out to be 20.6%. Take `NC(=O)c1c(NC(=S)Nc2ccc(F)cc2)sc2c1CCCC2`: the “hERG current change (%, negative = inhibition) at 1uM” value is 9.62%. As for `Cc1ccccc1C(=O)c1cccn1CC(=O)NCc1ccccc1Cl`, the “hERG current change (%, negative = inhibition) at 1uM” value is given as 17.6%. Take `COCc1ccc(C(=O)Nc2ccc(C(=O)O)cc2)o1`: the “hERG current change (%, negative = inhibition) at 1uM” value is recorded as 9.35%. Regarding `N#C/C(=C\c1ccccc1O)C(=O)Nc1ccccn1`, the “hERG current change (%, negative = inhibition) at 1uM” value is listed as 5.77%. `CCOC(=O)c1cccc(NC(=O)CCn2nnc3ccccc32)c1`: the “hERG current change (%, negative = inhibition) at 1uM” value was found to be 3.27%.

As to `COc1ccc(CNC(=O)C(OC(=O)c2ccco2)c2ccccc2)cc1` (stereo not shown), the “hERG current change (%, negative = inhibition) at 1uM” value is recorded as -1.26%. Turning to `COc1ccccc1C(=O)NC(=O)COC(=O)c1oc2ccccc2c1C`, the “hERG current change (%, negative = inhibition) at 1uM” value is 9.71%. For `COc1cc(OC)cc(-c2cc3nc(C)c(CCC(=O)O)c(=O)n3[nH]2)c1`, the “hERG current change (%, negative = inhibition) at 1uM” value is reported as -0.937%. Next, `COCCC(=O)N1CCC(Oc2ccc(C(=O)N3CCC(N(C)C)C3)cc2)CC1` (stereo not shown): 14.1%.

These data come from article PMC4336329 (PLoS ONE, 2015).
